We go through four substances from paper PMC8889575.

Chains of the proteins cited; added tags and fusions are not shown. Lines headed by an entry give the natural chain unless they say otherwise; changes in a name come on top. A line that says so, or that is headed by a name, gives the form on record, which may keep a tag or linker. Residues count along the entry.
UniProt P09055, residues 21-798: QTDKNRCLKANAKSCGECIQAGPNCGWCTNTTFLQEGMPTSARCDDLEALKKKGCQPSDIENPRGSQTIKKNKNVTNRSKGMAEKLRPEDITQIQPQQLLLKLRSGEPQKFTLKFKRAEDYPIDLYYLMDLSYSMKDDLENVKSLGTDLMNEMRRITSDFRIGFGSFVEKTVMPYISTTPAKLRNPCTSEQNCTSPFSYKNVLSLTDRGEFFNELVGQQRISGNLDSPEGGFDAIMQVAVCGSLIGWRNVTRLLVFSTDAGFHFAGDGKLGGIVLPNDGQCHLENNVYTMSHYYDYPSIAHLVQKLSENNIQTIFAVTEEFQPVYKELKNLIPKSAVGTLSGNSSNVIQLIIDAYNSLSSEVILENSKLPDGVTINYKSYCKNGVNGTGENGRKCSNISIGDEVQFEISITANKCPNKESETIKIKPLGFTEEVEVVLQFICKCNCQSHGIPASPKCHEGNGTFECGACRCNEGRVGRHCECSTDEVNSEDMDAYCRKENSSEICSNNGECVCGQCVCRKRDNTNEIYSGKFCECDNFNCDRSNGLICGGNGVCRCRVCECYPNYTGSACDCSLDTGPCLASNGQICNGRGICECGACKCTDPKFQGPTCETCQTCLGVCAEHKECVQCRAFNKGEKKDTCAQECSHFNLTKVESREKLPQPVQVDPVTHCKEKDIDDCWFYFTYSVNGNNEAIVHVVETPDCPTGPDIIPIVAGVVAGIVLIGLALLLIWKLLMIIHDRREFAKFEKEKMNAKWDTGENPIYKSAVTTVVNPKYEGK
UniProt P78310: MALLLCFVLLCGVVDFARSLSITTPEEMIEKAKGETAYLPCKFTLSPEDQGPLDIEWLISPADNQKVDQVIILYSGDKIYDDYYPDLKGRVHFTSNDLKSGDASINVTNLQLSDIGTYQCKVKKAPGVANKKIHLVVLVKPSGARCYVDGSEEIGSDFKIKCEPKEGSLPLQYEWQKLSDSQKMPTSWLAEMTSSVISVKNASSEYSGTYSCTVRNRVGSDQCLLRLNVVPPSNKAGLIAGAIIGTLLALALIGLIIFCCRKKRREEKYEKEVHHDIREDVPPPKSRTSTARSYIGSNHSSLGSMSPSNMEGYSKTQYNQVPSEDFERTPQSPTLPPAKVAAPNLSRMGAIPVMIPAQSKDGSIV
WTCAR-GST cytoplasmic tail: residues 259-365 of P78310
AACAR-GFP (CAR T290A & S293A, non-phosphorylated mutant, GFP-tagged) (P78310, form named): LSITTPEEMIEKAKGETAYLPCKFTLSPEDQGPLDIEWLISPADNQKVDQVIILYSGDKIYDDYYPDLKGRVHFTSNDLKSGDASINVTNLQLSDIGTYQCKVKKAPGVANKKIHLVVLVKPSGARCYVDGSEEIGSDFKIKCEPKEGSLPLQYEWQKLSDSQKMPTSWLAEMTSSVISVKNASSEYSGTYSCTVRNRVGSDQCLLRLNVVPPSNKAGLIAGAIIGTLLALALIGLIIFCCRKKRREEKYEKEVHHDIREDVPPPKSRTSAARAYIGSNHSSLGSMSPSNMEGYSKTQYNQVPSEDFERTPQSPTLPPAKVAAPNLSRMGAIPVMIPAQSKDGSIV
DDCAR-GST cytoplasmic tail (T290D & S293D, phospho-mimetic) (P78310, form named): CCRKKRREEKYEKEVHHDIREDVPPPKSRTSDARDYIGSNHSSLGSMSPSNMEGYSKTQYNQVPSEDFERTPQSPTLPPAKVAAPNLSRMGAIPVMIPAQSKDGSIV
UniProt P34152: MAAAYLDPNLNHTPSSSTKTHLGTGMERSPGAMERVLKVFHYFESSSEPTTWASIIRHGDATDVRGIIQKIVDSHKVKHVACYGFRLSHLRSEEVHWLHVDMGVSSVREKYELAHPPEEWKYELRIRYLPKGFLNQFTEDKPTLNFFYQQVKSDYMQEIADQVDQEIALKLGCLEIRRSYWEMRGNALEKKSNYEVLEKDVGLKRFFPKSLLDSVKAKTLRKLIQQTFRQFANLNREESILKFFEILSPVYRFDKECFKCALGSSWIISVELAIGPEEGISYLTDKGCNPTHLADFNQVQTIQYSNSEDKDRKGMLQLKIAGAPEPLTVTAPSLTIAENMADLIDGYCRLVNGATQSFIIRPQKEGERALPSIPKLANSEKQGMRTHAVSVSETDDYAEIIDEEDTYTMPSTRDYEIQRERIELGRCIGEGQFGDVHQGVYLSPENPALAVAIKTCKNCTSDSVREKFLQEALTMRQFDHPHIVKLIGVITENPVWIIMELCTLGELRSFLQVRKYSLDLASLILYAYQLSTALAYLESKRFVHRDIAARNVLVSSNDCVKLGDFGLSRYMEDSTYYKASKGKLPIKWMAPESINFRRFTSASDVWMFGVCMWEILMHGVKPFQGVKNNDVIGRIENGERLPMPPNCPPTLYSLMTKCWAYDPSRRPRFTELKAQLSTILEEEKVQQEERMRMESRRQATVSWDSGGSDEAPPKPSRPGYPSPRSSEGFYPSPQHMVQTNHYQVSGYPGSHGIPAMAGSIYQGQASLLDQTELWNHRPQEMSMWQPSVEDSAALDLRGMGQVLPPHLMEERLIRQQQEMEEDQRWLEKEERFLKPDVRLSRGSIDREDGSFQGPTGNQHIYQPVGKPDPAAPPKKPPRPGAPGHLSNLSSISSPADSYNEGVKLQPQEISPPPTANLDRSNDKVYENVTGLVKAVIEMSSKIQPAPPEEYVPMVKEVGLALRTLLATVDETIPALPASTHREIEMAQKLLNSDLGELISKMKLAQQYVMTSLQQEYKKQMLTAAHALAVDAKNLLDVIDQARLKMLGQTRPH
UniProt Q8VI36: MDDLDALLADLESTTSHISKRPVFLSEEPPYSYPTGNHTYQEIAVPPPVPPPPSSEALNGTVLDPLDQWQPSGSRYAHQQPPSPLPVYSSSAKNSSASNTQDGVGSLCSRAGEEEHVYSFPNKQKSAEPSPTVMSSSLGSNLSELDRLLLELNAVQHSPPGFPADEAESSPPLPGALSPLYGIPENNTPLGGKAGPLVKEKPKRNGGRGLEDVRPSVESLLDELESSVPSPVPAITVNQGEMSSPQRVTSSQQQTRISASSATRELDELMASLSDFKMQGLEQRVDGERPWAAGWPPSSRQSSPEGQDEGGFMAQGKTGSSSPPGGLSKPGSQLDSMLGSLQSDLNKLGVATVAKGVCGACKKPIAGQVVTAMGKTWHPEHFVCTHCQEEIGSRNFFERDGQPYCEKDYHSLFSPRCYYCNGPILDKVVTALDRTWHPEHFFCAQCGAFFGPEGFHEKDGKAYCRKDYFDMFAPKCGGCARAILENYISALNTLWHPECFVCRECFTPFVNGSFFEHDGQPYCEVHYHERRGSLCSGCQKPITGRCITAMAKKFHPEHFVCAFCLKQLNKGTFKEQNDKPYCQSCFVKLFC

No constants are given. Whether binding was seen depends on the method and setting. Binding seen in cells or lysates may run through a third protein. Some entries that bind do so weakly or less than the wild type.

The target in assay [1] is β1 integrin (mouse (endogenous in CMT 167 and LLC)) (UniProt P09055). In words: co-IP; immunoprecipitation of β1 integrins from lysates of the specified cell lines, blots probed for β1 integrin and GFP (Figure 5A); IP lysis buffer pH 7.4, 50 mM Tris, 150 mM NaCl, 1% Triton X-100, 1% NP40.
The target in assay [2] is WTCAR-GST cytoplasmic tail (UniProt P78310). In words: pull-down; GST or CAR-GST cytoplasmic tail (WT, AA, DD) on beads incubated with lysates of CMT parental cells for 3 h at 4 °C in IP buffer, washed three times, immunoblotted (Figure 5C, D); only the target purified.
The target of assay [3] is DDCAR-GST cytoplasmic tail (T290D & S293D, phospho-mimetic) (UniProt P78310). Described as above.
Assay [4] deals with WTCAR-GFP (coxsackie and adenovirus receptor, wild type, GFP-tagged) (UniProt P78310). In words: co-IP; GFP-Trap beads on lysates of LLC and CMT cells expressing GFP-tagged proteins, 2 h at 4 °C; IP lysis buffer pH 7.4, 50 mM Tris, 150 mM NaCl, 50 mM NaF, 1 mM EDTA, 1% Triton X-100, 1% NP40; blots for FAK, paxillin, Src, GFP (Figure 5B).
In assay [5] the target is AACAR-GFP (CAR T290A & S293A, non-phosphorylated mutant, GFP-tagged) (UniProt P78310). The description is as above.

On to “AACAR-GFP (CAR T290A & S293A, non-phosphorylated mutant, GFP-tagged) (from UniProt P78310 20-365) (receptor)”, for which the binding entry in assay [1] was “no binding”.
Turning to “Focal Adhesion Kinase (FAK) (from UniProt P34152 1-1052) (enzyme)”, the binding entry in assay [2] is “binds”; in assay [3], “binds”; in assay [4], “binds”; in assay [5] it was “no binding”.
“WTCAR-GFP (coxsackie and adenovirus receptor, wild type, GFP-tagged) (from UniProt P78310 20-365)”: in assay [1], the binding result is listed as “binds”.
Consider paxillin (from UniProt Q8VI36 1-591), for which the binding result in assay [2] was “binds”; in assay [3], “binds”; in assay [4] it was “binds”; in assay [5] it was “no binding”.
